Experimental data published in article PMC9911399, “Two distinct binding modes provide the RNA-binding protein RbFox with extraordinary sequence specificity”.
Substitutions are numbered along the chain they refer to; changes in the protein carry UniProt numbers. Some of the results follow.

T1: RBFOX1 RRM RbFoxmut (Fox-RRM*) (Homo sapiens, UniProt Q9NWB1 109-208, R118D;E147R;N151S;E152T)
T1 sequence: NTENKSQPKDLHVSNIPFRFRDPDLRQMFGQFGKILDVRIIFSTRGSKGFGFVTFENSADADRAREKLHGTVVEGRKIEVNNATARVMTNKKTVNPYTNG

B1: AUAGUAU (DNA:RNA)
RNA: GGGAGACCGGAAUUCAGAUUGUCCAUAGUAUUUAAAUCCCGUCGUAGCCACCA
DNA 1: CAATCTGAATTCCGGTCTCCC
DNA 2: TGGTGGCTACGACGGGATT
B2: UUCUUUG (DNA:RNA)
RNA: B1 RNA with A25U, A27C, G28U, A30U, U31G
DNA 1: CAATCTGAATTCCGGTCTCCC
DNA 2: TGGTGGCTACGACGGGATT
B3: AAGGCAA (DNA:RNA)
RNA: B1 RNA with U26A, A27G, U29C, U31A
DNA 1: CAATCTGAATTCCGGTCTCCC
DNA 2: TGGTGGCTACGACGGGATT
B4: UCAGGCU (DNA:RNA)
RNA: B1 RNA with A25U, U26C, U29G, A30C
DNA 1: CAATCTGAATTCCGGTCTCCC
DNA 2: TGGTGGCTACGACGGGATT
B5: AGAAGCU (DNA:RNA)
RNA: B1 RNA with U26G, G28A, U29G, A30C
DNA 1: CAATCTGAATTCCGGTCTCCC
DNA 2: TGGTGGCTACGACGGGATT
B6: UAUGCUU (DNA:RNA)
RNA: B1 RNA with A25U, U26A, A27U, U29C, A30U
DNA 1: CAATCTGAATTCCGGTCTCCC
DNA 2: TGGTGGCTACGACGGGATT
B7: CCAAACA (DNA:RNA)
RNA: B1 RNA with A25C, U26C, G28A, U29A, A30C, U31A
DNA 1: CAATCTGAATTCCGGTCTCCC
DNA 2: TGGTGGCTACGACGGGATT
B8: AGCACGU (DNA:RNA)
RNA: B1 RNA with U26G, A27C, G28A, U29C, A30G
DNA 1: CAATCTGAATTCCGGTCTCCC
DNA 2: TGGTGGCTACGACGGGATT
B9: AUCCGGA (DNA:RNA)
RNA: B1 RNA with A27C, G28C, U29G, A30G, U31A
DNA 1: CAATCTGAATTCCGGTCTCCC
DNA 2: TGGTGGCTACGACGGGATT
B10: UUUGACG (DNA:RNA)
RNA: B1 RNA with A25U, A27U, U29A, A30C, U31G
DNA 1: CAATCTGAATTCCGGTCTCCC
DNA 2: TGGTGGCTACGACGGGATT
B11: UGGAAUG (DNA:RNA)
RNA: GGGAGACCGGAAUUCAGAUUGUCCUGGAAUGUUAAAUCCCGUCGUAGCCACCA
DNA 1: CAATCTGAATTCCGGTCTCCC
DNA 2: TGGTGGCTACGACGGGATT
B12: CUCCGCA (DNA:RNA)
RNA: B1 RNA with A25C, A27C, G28C, U29G, A30C, U31A
DNA 1: CAATCTGAATTCCGGTCTCCC
DNA 2: TGGTGGCTACGACGGGATT
B13: CCUCCAU (DNA:RNA)
RNA: B1 RNA with A25C, U26C, A27U, G28C, U29C
DNA 1: CAATCTGAATTCCGGTCTCCC
DNA 2: TGGTGGCTACGACGGGATT
B14: CACAUGA (DNA:RNA)
RNA: B1 RNA with A25C, U26A, A27C, G28A, A30G, U31A
DNA 1: CAATCTGAATTCCGGTCTCCC
DNA 2: TGGTGGCTACGACGGGATT
B15: UCACUCG (DNA:RNA)
RNA: B1 RNA with A25U, U26C, G28C, A30C, U31G
DNA 1: CAATCTGAATTCCGGTCTCCC
DNA 2: TGGTGGCTACGACGGGATT
B16: UCGUUAU (DNA:RNA)
RNA: B1 RNA with A25U, U26C, A27G, G28U
DNA 1: CAATCTGAATTCCGGTCTCCC
DNA 2: TGGTGGCTACGACGGGATT
B17: AUGCUAC (DNA:RNA)
RNA: B1 RNA with A27G, G28C, U31C
DNA 1: CAATCTGAATTCCGGTCTCCC
DNA 2: TGGTGGCTACGACGGGATT
B18: UGUGUGA (DNA:RNA)
RNA: B1 RNA with A25U, U26G, A27U, A30G, U31A
DNA 1: CAATCTGAATTCCGGTCTCCC
DNA 2: TGGTGGCTACGACGGGATT
B19: AGUGCAG (DNA:RNA)
RNA: B1 RNA with U26G, A27U, U29C, U31G
DNA 1: CAATCTGAATTCCGGTCTCCC
DNA 2: TGGTGGCTACGACGGGATT
B20: AGGAUGU (DNA:RNA)
RNA: B1 RNA with U26G, A27G, G28A, A30G
DNA 1: CAATCTGAATTCCGGTCTCCC
DNA 2: TGGTGGCTACGACGGGATT
B21: AACGCGU (DNA:RNA)
RNA: B1 RNA with U26A, A27C, U29C, A30G
DNA 1: CAATCTGAATTCCGGTCTCCC
DNA 2: TGGTGGCTACGACGGGATT
B22: GACCAAC (DNA:RNA)
RNA: B1 RNA with A25G, U26A, A27C, G28C, U29A, U31C
DNA 1: CAATCTGAATTCCGGTCTCCC
DNA 2: TGGTGGCTACGACGGGATT
B23: GCGGCCA (DNA:RNA)
RNA: B1 RNA with A25G, U26C, A27G, U29C, A30C, U31A
DNA 1: CAATCTGAATTCCGGTCTCCC
DNA 2: TGGTGGCTACGACGGGATT
B24: UGGGGAU (DNA:RNA)
RNA: B1 RNA with A25U, U26G, A27G, U29G
DNA 1: CAATCTGAATTCCGGTCTCCC
DNA 2: TGGTGGCTACGACGGGATT
B25: ACUCCAA (DNA:RNA)
RNA: B1 RNA with U26C, A27U, G28C, U29C, U31A
DNA 1: CAATCTGAATTCCGGTCTCCC
DNA 2: TGGTGGCTACGACGGGATT
B26: CCUCAUA (DNA:RNA)
RNA: B11 RNA with U25C, G26C, G27U, A28C, G31A
DNA 1: CAATCTGAATTCCGGTCTCCC
DNA 2: TGGTGGCTACGACGGGATT
B27: CCCUCGG (DNA:RNA)
RNA: B11 RNA with U25C, G26C, G27C, A28U, A29C, U30G
DNA 1: CAATCTGAATTCCGGTCTCCC
DNA 2: TGGTGGCTACGACGGGATT
B28: UGCUGGU (DNA:RNA)
RNA: B11 RNA with G27C, A28U, A29G, U30G, G31U
DNA 1: CAATCTGAATTCCGGTCTCCC
DNA 2: TGGTGGCTACGACGGGATT
B29: UUACAUA (DNA:RNA)
RNA: B11 RNA with G26U, G27A, A28C, G31A
DNA 1: CAATCTGAATTCCGGTCTCCC
DNA 2: TGGTGGCTACGACGGGATT
B30: GCAACGU (DNA:RNA)
RNA: B1 RNA with A25G, U26C, G28A, U29C, A30G
DNA 1: CAATCTGAATTCCGGTCTCCC
DNA 2: TGGTGGCTACGACGGGATT
B31: CAGCGCA (DNA:RNA)
RNA: B11 RNA with U25C, G26A, A28C, A29G, U30C, G31A
DNA 1: CAATCTGAATTCCGGTCTCCC
DNA 2: TGGTGGCTACGACGGGATT

biological target: T1, RBFOX1 RRM RbFoxmut (Fox-RRM*); test: EMSA; HiTS-Eq, 1 nM pool, 10 min; buffer printed only for the single-RNA assays: 10 mM Tris pH 7.5, 150 mM NaCl, 3.4 mM EDTA, 0.001% NP-40, 30 C; conditions: tags: His6 N-terminal (pET28a); label: 5' 32P
Outline: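 A pool of RNA with 7 randomized nucleotides, 5′-radiolabelled and with DNA-annealed flanks, was equilibrated at 1 nM for 10 min in 50 µL with purified RbFox RRM, wild type or mutant, across increasing protein concentrations. Free RNA was separated by 8% native PAGE, excised, reverse-transcribed, barcoded by PCR and sequenced. Relative association constants were obtained from read-count changes of each RNA species versus the control reaction and normalised to the cognate motif.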

| Binder | binding signal |
| --- | --- |
| B1 | 0.169 KA relative to UGCAUGU |
| B2 | 0.128 KA relative to UGCAUGU |
| B3 | 0.061 KA relative to UGCAUGU |
| B4 | 0.127 KA relative to UGCAUGU |
| B5 | 0.104 KA relative to UGCAUGU |
| B6 | 0.0987 KA relative to UGCAUGU |
| B7 | 0.0719 KA relative to UGCAUGU |
| B8 | 0.154 KA relative to UGCAUGU |
| B9 | 0.0548 KA relative to UGCAUGU |
| B10 | 0.0801 KA relative to UGCAUGU |
| B11 | 1.66 KA relative to UGCAUGU |
| B12 | 0.11 KA relative to UGCAUGU |
| B13 | 0.0807 KA relative to UGCAUGU |
| B14 | 0.106 KA relative to UGCAUGU |
| B15 | 0.0902 KA relative to UGCAUGU |
| B16 | 0.11 KA relative to UGCAUGU |

| Binder | binding signal |
| --- | --- |
| B17 | 0.134 KA relative to UGCAUGU |
| B18 | 0.209 KA relative to UGCAUGU |
| B19 | 0.0945 KA relative to UGCAUGU |
| B20 | 0.339 KA relative to UGCAUGU |
| B21 | 0.097 KA relative to UGCAUGU |
| B22 | 0.0685 KA relative to UGCAUGU |
| B23 | 0.0962 KA relative to UGCAUGU |
| B24 | 0.135 KA relative to UGCAUGU |
| B25 | 0.0915 KA relative to UGCAUGU |
| B26 | 0.116 KA relative to UGCAUGU |
| B27 | 0.0672 KA relative to UGCAUGU |
| B28 | 0.133 KA relative to UGCAUGU |
| B29 | 0.0834 KA relative to UGCAUGU |
| B30 | 0.094 KA relative to UGCAUGU |
| B31 | 0.143 KA relative to UGCAUGU |
